Laboratory results reported in the supplement of paper PMC12217912.
Some of the results follow. Sequences were assembled here from the parent chain. Inactive controls read about 0.05.

B1: TEV protease; numbered along this chain (parent)
chain: MGESLFKGPRDYNPISSSICHLTNESDGHTTSLYGIGFGPFIITNKHLFRRNNGTLVVQSLHGVFKVKDTTTLQQHLVDGRDMIIIRMPKDFPPFPQKLKFREPQREERICLVTTNFQTKSMSSMVSDTSCTFPSGDGIFWKHWIQTKDGQCGSPLVSTRDGFIVGIHSASNFTNTNNYFTSVPKNFMELLTNQEAQQWVSGWRLNADSVLWGGHKVFMVKPEEPFQPVKEATQL

Variants of: B1
Assay: raw area under fraction-flipped curve 0-4 h after induction (AUC4h, not background-subtracted), DNA-recorder readout of cleavage of the substrate (dimensionless); higher = more cleavage of the substrate by the protease variant
Conditions: temperature: 34 °C; time window: 0-4 h after rhamnose induction
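Further: Bxb1 expression induced with 0.2% (w/v) L-rhamnose at OD600 near 0.5, cultures sampled hourly, flipped fraction per protease–substrate barcode pair counted by paired-end Illumina sequencing.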

Variant | area with substrate ENLYDQS | area with substrate ENLYEQS | area with substrate ENLYGQS | area with substrate ENLYHQS | area with substrate ENLYIQS | area with substrate ENLYKQS | area with substrate ENLYLQS | area with substrate ENLYQQS | area with substrate ENLYRQS | area with substrate ENLYSQS | area with substrate ENLYTQS | area with substrate ENLYVQS | area with substrate ENLYWQS | area with substrate ENLYYQS | area with substrate ENLYMQS | area with substrate ENLYPQS | area with substrate ENLYNQS
MGESLFKGPRDYNPISSSICHLTNESDGHTTSLYGIGFGPFIITNKHLFRRNNGHLVVQSLHGVFKVKDTTTLQQHLVDGRDMIIIRMPKDFPPFPQKLKFREPQREERICLVTTNFQTKSMSSMVSDTSCTFPSGDGIFWKHWIQTKDGQCGSPLVSTRDGFIVGIHSASNFTNTNNYFTSVPKNFMELLTNQEAQQWVSGWRLNADSVLWGGHKVFMVKPEEPFQPVKEATQL [T55H] | 0.0591 | 0.0701 | 0.0372 | 0.0586 | 0.134 | 0.0545 | 0.0921 | 0.0503 | 0.0646 | 0.0798 | 0.0777 | 0.14 | 0.0822 | 0.0497 | – | – | –
MGESLFKGPRDYNPISSSICHLTNESDGHTTSLYGIGFGPFIITNKHLFRRNNGTLAVQSLHGVFKVKDTTTLQQHLVDGRDMIIIRMPKDFPPFPQKLKFREPQREERICLVTTNFQTKSMSSMVSDTSCTFPSGDGIFWKHWIQTKDGQCGSPLVSTRDGFIVGIHSASNFTNTNNYFTSVPKNFMELLTNQEAQQWVSGWRLNADSVLWGGHKVFMVKPEEPFQPVKEATQL [V57A] | 0.0628 | 0.0609 | 0.0521 | 0.0513 | 0.142 | 0.0542 | – | 0.0747 | 0.0676 | – | 0.0729 | 0.121 | 0.088 | 0.0837 | 0.0953 | 0.0588 | –
MGESLFKGPRDYNPISSSICHLTNESDGHTTSLYGIGFGPFIITNKHLFRRNNGTLCVQSLHGVFKVKDTTTLQQHLVDGRDMIIIRMPKDFPPFPQKLKFREPQREERICLVTTNFQTKSMSSMVSDTSCTFPSGDGIFWKHWIQTKDGQCGSPLVSTRDGFIVGIHSASNFTNTNNYFTSVPKNFMELLTNQEAQQWVSGWRLNADSVLWGGHKVFMVKPEEPFQPVKEATQL [V57C] | 0.0559 | 0.0729 | 0.0588 | 0.0705 | 0.134 | 0.0447 | – | 0.0531 | 0.0609 | 0.0684 | – | 0.122 | 0.0729 | 0.0657 | – | 0.0658 | 0.0683
MGESLFKGPRDYNPISSSICHLTNESDGHTTSLYGIGFGPFIITNKHLFRRNNGTLVEQSLHGVFKVKDTTTLQQHLVDGRDMIIIRMPKDFPPFPQKLKFREPQREERICLVTTNFQTKSMSSMVSDTSCTFPSGDGIFWKHWIQTKDGQCGSPLVSTRDGFIVGIHSASNFTNTNNYFTSVPKNFMELLTNQEAQQWVSGWRLNADSVLWGGHKVFMVKPEEPFQPVKEATQL [V58E] | 0.0423 | – | – | – | – | 0.0084 | – | – | – | – | – | – | – | – | – | – | –
MGESLFKGPRDYNPISSSICHLTNESDGHTTSLYGIGFGPFIITNKHLFRRNNGTLVVQSSHGVFKVKDTTTLQQHLVDGRDMIIIRMPKDFPPFPQKLKFREPQREERICLVTTNFQTKSMSSMVSDTSCTFPSGDGIFWKHWIQTKDGQCGSPLVSTRDGFIVGIHSASNFTNTNNYFTSVPKNFMELLTNQEAQQWVSGWRLNADSVLWGGHKVFMVKPEEPFQPVKEATQL [L61S] | 0.0124 | – | – | – | – | 0.0864 | – | – | 0.0567 | – | – | – | – | – | – | 0.0753 | 0.0748
MGESLFKGPRDYNPISSSICHLTNESDGHTTSLYGIGFGPFIITNKHLFRRNNGTLVVQSLCGVFKVKDTTTLQQHLVDGRDMIIIRMPKDFPPFPQKLKFREPQREERICLVTTNFQTKSMSSMVSDTSCTFPSGDGIFWKHWIQTKDGQCGSPLVSTRDGFIVGIHSASNFTNTNNYFTSVPKNFMELLTNQEAQQWVSGWRLNADSVLWGGHKVFMVKPEEPFQPVKEATQL [H62C] | 0.051 | 0.0684 | – | 0.0657 | 0.122 | 0.0815 | 0.0924 | – | 0.0544 | – | 0.0881 | 0.15 | 0.0738 | – | 0.0904 | 0.0608 | 0.0781
MGESLFKGPRDYNPISSSICHLTNESDGHTTSLYGIGFGPFIITNKHLFRRNNGTLVVQSLHGVSKVKDTTTLQQHLVDGRDMIIIRMPKDFPPFPQKLKFREPQREERICLVTTNFQTKSMSSMVSDTSCTFPSGDGIFWKHWIQTKDGQCGSPLVSTRDGFIVGIHSASNFTNTNNYFTSVPKNFMELLTNQEAQQWVSGWRLNADSVLWGGHKVFMVKPEEPFQPVKEATQL [F65S] | 0.0731 | 0.0749 | 0.0696 | 0.0374 | 0.109 | 0.0417 | 0.0732 | – | 0.0673 | – | 0.0652 | 0.0893 | – | – | 0.0755 | 0.0617 | 0.0728
MGESLFKGPRDYNPISSSICHLTNESDGHTTSLYGIGFGPFIITNKHLFRRNNGTLVVQSLHGVFKVMDTTTLQQHLVDGRDMIIIRMPKDFPPFPQKLKFREPQREERICLVTTNFQTKSMSSMVSDTSCTFPSGDGIFWKHWIQTKDGQCGSPLVSTRDGFIVGIHSASNFTNTNNYFTSVPKNFMELLTNQEAQQWVSGWRLNADSVLWGGHKVFMVKPEEPFQPVKEATQL [K68M] | 0.0618 | – | 0.0659 | 0.0534 | – | 0.0524 | 0.0776 | – | 0.0488 | – | – | 0.116 | – | 0.0671 | – | 0.0538 | –
MGESLFKGPRDYNPISSSICHLTNESDGHTTSLYGIGFGPFIITNKHLFRRNNGTLVVQSLHGVFKVNDTTTLQQHLVDGRDMIIIRMPKDFPPFPQKLKFREPQREERICLVTTNFQTKSMSSMVSDTSCTFPSGDGIFWKHWIQTKDGQCGSPLVSTRDGFIVGIHSASNFTNTNNYFTSVPKNFMELLTNQEAQQWVSGWRLNADSVLWGGHKVFMVKPEEPFQPVKEATQL [K68N] | 0.0675 | – | 0.0599 | 0.066 | 0.12 | – | – | 0.0657 | 0.0641 | 0.0714 | 0.0981 | 0.14 | 0.0643 | – | 0.0935 | 0.0417 | 0.0803
